Where “and” joins values, the source holds several entries; their conditions need not be identical. Equal values may be shown once. Inconclusive means that the source gave no clear call. Such entries were picked first, then a sample of the others. For part of these data: Potencies of inconclusive entries are doubtful fits and often do not repeat. Calls of active or inactive are those of the source. The call rests on the fitted dose curve; in most records, active means well fitted curve in the direction sought with a large enough effect; inconclusive means small, poorly fitted or top-dose-only effect, or another doubt; inactive means no such curve, though single readings can be large; an effect the other way counts as inactive or inconclusive.
Experiments:
HEK293 = assay: Cytotoxic Profiling of Annotated Libraries Using Quantitative High-Throughput Screening (AID 1296008); conditions: Five cell lines viability, CellTiter-Glo ATP luminescence, 48-72 h; max response: stronger effect = lower value; further: nearly all actives have a fitted effect of over 60% in size; on max response: on the % scale 0 is the no-effect control and ±100 the full control effect
In short: (§1)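 Compounds were pin-transferred onto cells and incubated 48 or 72 hr at 37 degree Celsius, 95% humidity. CellTiter-Glo was added, plates sat 10 min at room temperature, then ATP-coupled luminescence was imaged as the viability read-out.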

KB-3-1 = assay: as above; conditions: Five cell lines viability, CellTiter-Glo ATP luminescence, 48-72 h; max response: stronger effect = lower value
In short: as §1

NIH3T3 = assay: as above; conditions: Five cell lines viability, CellTiter-Glo ATP luminescence, 48-72 h; max response: stronger effect = lower value
In short: as §1

MCC-26 = assay: qHTS assay to identify novel small-molecules to repurpose for Merkel cell carcinoma treatment (AID 1296009); conditions: MCC and control cell lines, CellTiter-Glo viability, 72 h; series mostly up to 46 µM; further: nearly all actives have a fitted effect of over 60% in size
In short: (§2)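 Viability readout: ATP luminescence (CellTiter-Glo) after 72 hr drug exposure at 37 degree celsius. Dose-response format was 8 points for NPC and 11 points for MIPE; data normalized to in-plate controls.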

WaGa = assay: as above; conditions: MCC and control cell lines, CellTiter-Glo viability, 72 h; series mostly up to 46 µM
In short: as §2

[1] = Drug repurposing screens with cells derived from glioblastoma tumor samples (AID 1345199); conditions: GBM patient neurospheres viability, ATP luminescence, 48 h; Potency: tumour line A unless noted; activity, negative = cell killing: at 46 µM (top of the series), tumour line A unless noted; further: nearly all actives have a fitted effect of over 40% in size; on activity, negative = cell killing: on the % scale 0 is the no-effect control and ±100 the full control effect
In short: (§3)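 Primary testing used CD133+ neurospheres from four GBM patients, seven concentrations, 48 h exposure and ATP-based viability; confirmation added three slower-growing patient lines.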

C33A = assay: Primary qHTS to identify gynecologic anti-cancer compounds using libraries of approved drugs and bioactive compounds (AID 1345084); conditions: Gynecologic cancer cell panel viability, ATPlite luminescence, 48 h; series mostly up to 57.5 µM; further: nearly all actives have a fitted effect of over 55% in size
In short: (§4)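 Measured: luminescence after ATPlite addition (15 min, RT). Exposure: 48 h, 37 C, 5% CO2.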

CAOV3 = assay: as above; conditions: Gynecologic cancer cell panel viability, ATPlite luminescence, 48 h; series mostly up to 57.5 µM
In short: as §4

Es-2 = assay: as above; conditions: Gynecologic cancer cell panel viability, ATPlite luminescence, 48 h; series mostly up to 57.5 µM
In short: as §4

HeLa = assay: as above; conditions: Gynecologic cancer cell panel viability, ATPlite luminescence, 48 h; series mostly up to 57.5 µM
In short: as §4

W2 = assay: qHTS profiling for inhibitors of Plasmodium falciparum proliferation (AID 504749); further: nearly all actives have a fitted effect of over 60% in size; conditions: P. falciparum in erythrocytes, SYBR Green DNA, 72 h; series mostly up to 28.7 µM
In short: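 Quantitative HTS: compounds pinned into medium, infected erythrocytes added (0.3% parasitemia, 2.5% hematocrit), 72 h culture at 37 C under 5% CO2. Saponin/Triton lysis with SYBR Green I, overnight RT, then fluorescence read.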

HaCat = assay: Cytotoxic Profiling of Annotated Libraries Using Quantitative High-Throughput Screening (AID 1296008); conditions: Five cell lines viability, CellTiter-Glo ATP luminescence, 48-72 h; max response: stronger effect = lower value; further: nearly all actives have a fitted effect of over 60% in size; on max response: on the % scale 0 is the no-effect control and ±100 the full control effect
In short: as §1

MKL-1 = assay: qHTS assay to identify novel small-molecules to repurpose for Merkel cell carcinoma treatment (AID 1296009); conditions: MCC and control cell lines, CellTiter-Glo viability, 72 h; series mostly up to 46 µM; further: nearly all actives have a fitted effect of over 60% in size
In short: as §2

[2] = qHTS assay to identify inhibitors of the type 1 interferon - major histocompatibility complex class I in skeletal muscle: Counter screen cell viability and HiBit confirmation (AID 1347412); conditions: iHSKM muscle cells + IFN-b, HiBiT or CellTiter-Glo, 24 h; further: nearly all actives have a fitted effect of over 60% in size
In short: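 Myoblasts (C25cl48, HLA-B HiBiT) seeded in medium without dexamethasone, IFN-b 4 ng/ml added except unstimulated columns; 1 hr later compounds pinned (12-pt 1:3, top 46 uM final). Incubated 24 hrs, lysed 10 min, luminescence measured.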

CASKI = assay: Primary qHTS to identify gynecologic anti-cancer compounds using libraries of approved drugs and bioactive compounds (AID 1345084); conditions: Gynecologic cancer cell panel viability, ATPlite luminescence, 48 h; activity change, negative = cytotoxicity: at 57.5 µM (top of the series); further: nearly all actives have a fitted effect of over 55% in size
In short: as §4

MKL-2 = assay: qHTS assay to identify novel small-molecules to repurpose for Merkel cell carcinoma treatment (AID 1296009); conditions: MCC and control cell lines, CellTiter-Glo viability, 72 h; series mostly up to 46 µM; further: nearly all actives have a fitted effect of over 60% in size
In short: as §2

astro = assay: Drug repurposing screens with cells derived from glioblastoma tumor samples (AID 1345199); conditions: viability, ATP luminescence, 48 h; activity, negative = cell killing: at 45.9 µM (top of the series); further: nearly all actives have a fitted effect of over 40% in size; on activity, negative = cell killing: on the % scale 0 is the no-effect control and ±100 the full control effect
In short: as §3

UISO = assay: qHTS assay to identify novel small-molecules to repurpose for Merkel cell carcinoma treatment (AID 1296009); conditions: MCC and control cell lines, CellTiter-Glo viability, 72 h; series mostly up to 46 µM; further: nearly all actives have a fitted effect of over 60% in size
In short: as §2
Potency means the concentration at half of the fitted maximal effect; tags describe the fitted curve by direction and shape.

SMILES | Potency (HEK293) | Potency (KB-3-1) | Potency (NIH3T3) | Potency (MCC-26) | Potency (WaGa) | Potency [1] | Potency (C33A) | Potency (CAOV3) | Potency (Es-2) | Potency (HeLa) | Potency (W2) | Potency (HaCat) | Potency (MKL-1) | Potency ([2]; Viability) | Potency (CASKI) | Potency (MKL-2) | Potency (astro) | max response (HaCat) | Potency (UISO) | Potency ([2]; HiBiT)
COc1cccc2c1C(=O)c1c(O)c3c(c(O)c1C2=O)C[C@@](O)(C(=O)CO)C[C@@H]3O[C@H]1C[C@H](N)[C@H](O)[C@H](C)O1 | active: 0.266 µM | inconclusive: 29.1 µM [inhibitor, single point] | active: 0.15 µM | active: 2.11 µM | inconclusive: 0.119 µM [inhibitor, full curve] | inactive | active: 2.82 µM | active: 2.51 µM | active: 10 µM | active: 22.4 µM |  |  |  |  |  |  |  |  |  | 
C[n+]1cc2c3c(ccc2c2ccc4cc5c(cc4c21)OCO5)OCO3 | active: 1.16 µM |  |  |  | active: 1.03 µM |  | active: 2 µM | inconclusive: 1.78 µM [cytotoxic, full curve, poor fit] | active: 8.91 µM |  | inconclusive: 8.49 µM [inhibitor, single point] | active: 2.59 µM | active: 1.46 µM | active: 2.22 µM | inconclusive: 2.82 µM [cytotoxic, partial curve, poor fit] |  |  |  |  | 
Nc1ccc(C(=O)Nc2ccccc2N)cc1 | inconclusive: 26.6 µM [inhibitor, single point] |  | inconclusive: 23.7 µM [inhibitor, single point] | inconclusive: 29.9 µM [inhibitor, single point] |  |  |  |  | inconclusive: 15.8 µM [cytotoxic, partial curve] | inconclusive: 22.4 µM [cytotoxic, single point] | inconclusive: 21.3 µM [inhibitor, partial curve, poor fit] | inconclusive: 33.5 µM [inhibitor, single point] |  |  |  | active: 5.96 µM | inconclusive: 11.2 µM [inhibitor, partial curve, poor fit] |  |  | 
COC(=O)Nc1nc2ccc(C(=O)c3cccs3)cc2[nH]1 | inconclusive: 0.0009 µM [inhibitor] |  | inconclusive: 0.0083 µM [inhibitor, full curve] | active: 132 nM and inconclusive: 335 nM [inhibitor, full curve] | inconclusive: 13.2 nM [inhibitor, full curve] and inconclusive: 94.4 nM [inhibitor, full curve] |  | active: 1 µM |  |  |  | inconclusive: 13.5 µM [inhibitor, single point] |  | inconclusive: 23.5 nM [inhibitor, full curve] and inconclusive: 106 nM [inhibitor, full curve] | inconclusive: 0.249 µM [cytotoxic, full curve] | inconclusive: 0.158 µM [cytotoxic, full curve, poor fit] | inconclusive: 3.7 nM [inhibitor, full curve, poor fit] and inconclusive: 3.76 µM [inhibitor, full curve, poor fit] | inconclusive: 0.282 µM [inhibitor, full curve] | inactive: 3.37% and inactive: -11.6% | active: 23.5 nM and inconclusive: 188 nM [inhibitor, full curve] | inconclusive: 0.351 µM [inhibitor, full curve]
CN(C)C(=S)SC(=S)N(C)C | active: 5.96 µM |  |  |  |  |  | active: 15.8 µM | inconclusive: 8.91 µM [cytotoxic, partial curve, poor fit] |  |  | active: 9.53 µM | inconclusive: 33.5 µM [inhibitor, single point] |  |  |  |  |  |  | active: 1.19 µM | 
COCC(=O)O[C@]1(CCN(C)CCCc2nc3ccccc3[nH]2)CCc2cc(F)ccc2[C@@H]1C(C)C | inconclusive: 23.7 µM [inhibitor, single point] | inconclusive: 29.1 µM [inhibitor, single point] | inconclusive: 29.9 µM [inhibitor, single point] |  | inconclusive: 21.1 µM [inhibitor, single point] |  | inconclusive: 39.8 µM [cytotoxic, single point] | inconclusive: 25.1 µM [cytotoxic, single point] | inactive |  |  | inconclusive: 33.5 µM [inhibitor, single point] | inconclusive: 18.8 µM [inhibitor, single point] |  | inconclusive: 39.8 µM [cytotoxic, single point] |  | active: 10 µM |  |  | 

Source: PubChem BioAssay (NCATS)
